# Test results from PubChem BioAssay AID1476 (National Center for Advancing Translational Sciences (NCATS), 2009).
# About 4,500 (2.2%) of roughly 200,000 compounds were called active. The shares of active, inactive and inconclusive entries below differ from those in the screen. Calls follow the shape of the dose curve; as a rule, active = well fitted inhibition curve with a large enough effect; inconclusive = small, poorly fitted or top-dose-only effect, or effect the other way; inactive = flat fitted curve, though single readings scatter. Where the call is inconclusive, the potency comes from a doubtful curve fit.
# Molecular target: Cruzipain (Trypanosoma cruzi) (UniProt P25779)
# Experiment: qHTS Assay for Promiscuous and Specific Inhibitors of Cruzain (without detergent); also: nearly all actives have a fitted effect of over 40% in size;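 as to max response, negative = inhibition: plate controls were enzyme without inhibitor for no effect and buffer without enzyme for full effect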
# Conditions: purified cruzain, Z-FR-AMC fluorescence, no detergent
# Outline: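 Purified cruzain at 1.5 nM, pre-incubated 15 min with compound at room temperature in 100 mM sodium acetate pH 5.5, 5 mM DTT, 0.00005% Triton X-100. Reaction started with 2 uM Z-FR-AMC; AMC fluorescence increase over 60 s gives rate.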
# Potency is read from the fitted curve at half-maximal effect; tags tell the direction and shape of the fitted curve.
# Sequence of UniProt P25779 (P25779 whole entry, looked up): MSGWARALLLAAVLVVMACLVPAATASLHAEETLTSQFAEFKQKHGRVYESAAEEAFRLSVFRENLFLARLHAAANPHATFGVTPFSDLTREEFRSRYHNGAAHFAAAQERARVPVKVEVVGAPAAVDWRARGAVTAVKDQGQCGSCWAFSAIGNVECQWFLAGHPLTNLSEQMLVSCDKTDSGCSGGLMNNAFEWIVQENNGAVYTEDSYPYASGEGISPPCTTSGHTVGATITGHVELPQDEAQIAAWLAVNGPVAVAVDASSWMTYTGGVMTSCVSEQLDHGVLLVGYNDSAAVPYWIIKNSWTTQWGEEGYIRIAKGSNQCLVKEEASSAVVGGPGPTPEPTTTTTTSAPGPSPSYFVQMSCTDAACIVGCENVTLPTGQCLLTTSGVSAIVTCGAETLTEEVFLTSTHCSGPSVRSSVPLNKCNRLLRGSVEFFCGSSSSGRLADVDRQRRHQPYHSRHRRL
SMILES,Potency,"max response, negative = inhibition"
CC(C)CC(C(=O)NCC1CCCO1)N(C(=O)Cn1nnc(-c2ccc(F)cc2)n1)c1ccccc1F (configuration not stated),"inconclusive: 31.6 µM [activator, single point]",–
Cc1sc2ncnc(SCC(=O)c3cccs3)c2c1C,"inconclusive: 39.8 µM [inhibitor, single point]",–
CN(C)S(=O)(=O)c1ccc2c(c1)N(CC(=O)Nc1ccc(OC(F)(F)F)cc1)C(=O)CS2,"inconclusive: 25.1 µM [inhibitor, single point]",–
C=Cc1ccc(Cn2c(C(=O)O)c(CNC3CCCC3)c3ccc(C)cc32)cc1,"inconclusive: 39.8 µM [activator, single point]",–
CCOc1ccc(S(=O)(=O)N(C)c2ccc(OCC(=O)OCc3c(C)noc3C)cc2)cc1,"inconclusive: 25.1 µM [activator, single point]",–
CCCCN(CC)C(=O)CSc1nc2n[nH]c(C)c2c(=N)n1-c1cccc(OC)c1,"inconclusive: 31.6 µM [activator, single point]",–
Cc1oc(-c2ccc(Cl)cc2)nc1CS(=O)CC(=O)N1CCN(c2cccc(C(F)(F)F)c2)CC1 (configuration not stated),"inconclusive: 15.8 µM [activator, partial curve]",–
C=CCn1c(SCC(=O)NC(=O)NCCC)nnc1C1CCCCC1,–,inactive: 8.39%
Brc1ccc(-c2nc3ccccn3c2Nc2ccc3c(c2)OCCO3)o1,"inconclusive: 31.6 µM [inhibitor, single point]",–
COc1cc(/C=N/Nc2nc(Nc3ccccc3)nc(-n3nc(C)cc3C)n2)cc(OC)c1OC,"inconclusive: 39.8 µM [activator, single point]",–
CNC(=O)c1c(NC(=O)c2nc3ccccc3s2)sc2c1CCC2,"inconclusive: 31.6 µM [activator, single point]",–
CCOC(=O)c1ncc2[nH]c3ccc(OCc4ccccc4)cc3c2c1COC,"inconclusive: 35.5 µM [activator, single point]",–
O=C(CNc1cc(S(=O)(=O)N2CCCC2)ccc1OCC(F)(F)F)Nc1ccc(SC(F)F)cc1,active: 15.8 µM,–
CC(=O)NC1=C(OS(=O)(=O)c2ccc(C)cc2)CN(C)C1=O,–,inactive: 2.03%
Cc1cccc(C)c1NC(=O)NCCc1c[nH]c2ccccc12,–,inactive: 18.6%
CCOC(=O)N1CCN(Cc2nc3cc(NC(=O)c4ccccc4[N+](=O)[O-])ccc3n2C(C)C)CC1,"inconclusive: 31.6 µM [activator, single point]",–
Cc1ccc2c(c1)-c1onc(C(=O)N3CCN(c4ccc(Cl)cc4)CC3)c1CO2,"inconclusive: 31.6 µM [activator, single point]",–
O=C(C1COc2ccccc2O1)N(Cc1cccnc1)c1nc2ccc(Cl)cc2s1 (configuration not stated),–,inactive: -18.5%
COc1cc(CNc2ccc(N3CCCC3)cc2)ccc1OCc1ccccc1F,"inconclusive: 25.1 µM [inhibitor, partial curve, poor fit]",–
O=S(=O)(c1ccccc1)N1CCC2(CCN(c3ccc(-c4ccccc4)cc3)CC2)CC1,"inconclusive: 5.01 µM [inhibitor, partial curve, poor fit]",–
Cc1cccc(-n2cc(-c3ccccc3)c3c(NN4CCOCC4)ncnc32)c1,"inconclusive: 39.8 µM [activator, single point]",–

SMILES,Potency,"max response, negative = inhibition"
CC1(C(=O)c2ccccc2)C2c3c(ccc4ccccc34)OC(=O)C21C(=O)N1CCOCC1 (configuration not stated),"inconclusive: 31.6 µM [activator, single point]",–
Cc1cc(C)c(S(C)(=O)=O)c(Oc2ccccc2C)n1,–,inactive: 2.97%
Cc1cc(=O)oc(C)c1C(=O)N1CCN(C(c2ccccc2)c2ccccc2)CC1,"inconclusive: 39.8 µM [activator, single point]",–
O=c1c2ccccc2nc(/C=C/c2cccc3ccccc23)n1-c1ccccc1Cl,"inconclusive: 20 µM [inhibitor, single point]",–
COc1cc(CNC(=O)c2ccc3nc(CCc4ccccc4)oc3c2)cc(OC)c1OC,"inconclusive: 39.8 µM [activator, single point]",–
Oc1ccccc1/C=N/Nc1cc(N2CCCC2)nc(N2CCCC2)n1,"inconclusive: 39.8 µM [inhibitor, single point]",–
CCOC(=O)c1cc(C(C)C)sc1NC(=O)COC(=O)CCS(=O)(=O)c1ccccc1,"inconclusive: 39.8 µM [activator, single point]",–
N#C[C@@H]1[C@@H]2C(=O)N(c3ccc4c(c3)OCCO4)C(=O)[C@@H]2C2c3ccccc3C=CN21 (some centres not stated),"inconclusive: 20 µM [inhibitor, single point]",–
O=C(Nc1cccc2ccccc12)c1nn(C23CC4CC(CC(C4)C2)C3)cc1Br,active: 10 µM,–
CCCCCCCCC(=O)NC(NC(=S)N1CCOCC1)C(Cl)(Cl)Cl (configuration not stated),"inconclusive: 31.6 µM [activator, single point]",–
COc1ccc(Cl)cc1NC(=O)C1CCCN(c2ncnc3onc(C)c23)C1 (configuration not stated),"inconclusive: 39.8 µM [activator, single point]",–
CCC(Oc1ccccc1F)C(=O)N1CCC(c2nc3ccccc3s2)CC1 (configuration not stated),"inconclusive: 20 µM [activator, partial curve]",–
O=C(CCN1C(=O)c2ccccc2C1=O)N1CCN(Cc2ccc(Cl)cc2Cl)CC1,"inconclusive: 31.6 µM [activator, single point]",–
Cc1ccc(C23CC4CC(CC(C(=O)OCC(=O)NC5CCS(=O)(=O)C5)(C4)C2)C3)cc1 (configuration not stated),"inconclusive: 39.8 µM [activator, single point]",–
CCc1nc(N[C@@H](Cc2c[nH]c3ccccc23)C(=O)O)c2oc3ccccc3c2n1,"inconclusive: 39.8 µM [activator, single point]",–
Cc1ccccc1C(=O)NC1(C(F)(F)F)N=C(c2ccccc2)N(C2CCCCC2)C1=O (configuration not stated),"inconclusive: 31.6 µM [activator, single point]",–
Cc1cccc(Nc2nc3c(S(=O)(=O)c4ccccc4)nnn3c3ccccc23)c1,active: 25.1 µM,–
CCOc1ccc(NC(=O)CSc2ccc(-c3sc(-c4ccccc4)nc3C)nn2)cc1,–,inactive: 4.23%
CCOC(=O)c1[nH]c2ccc(F)cc2c1NC(=O)Nc1ccccc1OC,active: 7.94 µM,–
COc1ccccc1Cn1cc(C(=O)c2ccc(C)cc2)c(=O)c2cc(C)ccc21,"inconclusive: 39.8 µM [activator, single point]",–
Cc1ccc(-n2nc(CO)c(C(=O)NCCCc3ccccc3)n2)cc1C,–,inactive: -1.04%

SMILES,Potency,"max response, negative = inhibition"
CCc1ccccc1Nc1nn2c(=O)c3ccc(C(=O)NCc4ccccc4OC)cc3nc2s1,active: 12.6 µM,–
Cc1ccc(C)c(S(=O)(=O)c2nnn3c2nc(NC(C)C)c2sccc23)c1,–,inactive: 14.2%
CCS(=O)(=O)N1Cc2ccccc2CC1C(=O)NC(C)C12CC3CC(CC(C3)C1)C2 (configuration not stated),"inconclusive: 31.6 µM [activator, single point]",–
CCOCCOC(=O)C(C)Oc1ccc(Oc2ncc(Cl)cc2Cl)cc1 (configuration not stated),"inconclusive: 39.8 µM [activator, single point]",–
COc1ccc(S(=O)(=O)Nc2ccccc2C(=O)NCc2ccco2)cc1Br,active: 25.1 µM,–
CCOc1ccc(Nc2nc3cc(Cl)c(Cl)cc3nc2-n2nc(C)cc2C)cc1,–,inactive: 4.36%
CCOC(=O)C1CCN(S(=O)(=O)c2cc(Cl)c(C)cc2OC)CC1,"inconclusive: 31.6 µM [activator, single point]",–
COc1ccc(Cl)cc1NC(=O)c1cn(C2CCCCC2)c(=O)c2c1c1ccccc1n2C,active: 10 µM,–
COc1ccc(N2CCN(c3csc4ccc(Cl)cc4c3=O)CC2)cc1,–,inactive: -1.05%
O=C(COC(=O)c1cc(-c2cccs2)nn1-c1ccccc1)Nc1cccc([N+](=O)[O-])c1,"inconclusive: 39.8 µM [inhibitor, single point]",–
COc1ccc(C)cc1NC(=O)C1CCN(S(=O)(=O)c2ccc3[nH]c(=O)oc3c2)CC1,–,inactive: 2.33%
COc1ccc2nc(Nc3nc(CSc4nc5ccccc5[nH]4)cc(=O)[nH]3)nc(C)c2c1,"inconclusive: 20 µM [activator, partial curve]",–
CCN(CC)S(=O)(=O)c1ccc(C)c(NC(=O)COC(=O)c2ccc(C)c(S(=O)(=O)N3CCOCC3)c2)c1,"inconclusive: 31.6 µM [activator, single point]",–
BrC(=C\c1ccccc1)/C=N/Nc1nc2ccccc2[nH]1,"inconclusive: 25.1 µM [inhibitor, single point]",–
O=C1CN(C(=O)COc2ccc(Cl)cc2)C(c2ccccc2)c2cc(Br)ccc2N1 (configuration not stated),"inconclusive: 39.8 µM [inhibitor, single point]",–
CC(=O)OC1CC(OC(C)=O)[C@]2(C)C(CC(OC(C)=O)[C@@]3(C)C4=CC(=O)OC(c5ccoc5)[C@]4(C)CCC32)C1(C)C (some centres not stated),"inconclusive: 31.6 µM [activator, single point]",–
COc1cc(/C=C(/C#N)c2ccc(F)cc2)ccc1OCc1ccc(C(=O)O)o1,"inconclusive: 31.6 µM [activator, single point]",–
Cc1ccccc1-c1nc2scc(CCNS(=O)(=O)c3ccccc3)n2n1,–,inactive: -9.32%
Cc1nn2c(=O)cc(COC(=O)c3cccc(NC(=O)CCc4ccccc4)c3)nc2s1,"inconclusive: 31.6 µM [activator, single point]",–
Cc1cc(/C=C(\C#N)c2nc3ccccc3[nH]2)c(C)n1C,"inconclusive: 39.8 µM [inhibitor, single point]",–
